# In the supplement of paper PMC11417369:
# ± gives the standard deviation of the averaged measurements. The list shows a part of the results.
# System: PfAP2-I AP2 domain 3 (GST-tagged)
# Assay: gcPBM binding intensity (ln(normalized median fluorescence intensity)); higher = stronger DNA binding
# How it was run: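 GST-fused DNA-binding domains of P. falciparum, expressed in E. coli, were applied at about 25 μg on average for 1 h to an Agilent 4 × 180k array of primer-extended double-stranded 36-bp intergenic genomic probes and negative controls. Binding intensity is the highest Masliner-normalised natural-log median intensity across replicate spots of either probe orientation, measured with Alexa488 anti-GST antibody and a 488 nm scan.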
row,Sequence,gcPBM binding intensity (ln)
1,TACATATATATATACACACATACATATATATACGCA [CACACA_site792],7.79 ± 0.42
2,ATCTATGGAGCTTATACACACTTTTATATTTTAACA [CACACA_site5994],7.91 ± 0.69
3,TTTGAATTTTTATATACACACATTATTATATTATAT [CACACA_site1593],7.68 ± 0.59
4,TATTTATTTGTGGGGTGTACGAAATTTTTTTTTTTT [XGTACX_site5091],8.38 ± 0.42
5,TTTACATTAAATCACGCACACAAAAAAAAAAAAAAA [CACACA_site2418],8.34 ± 0.32
6,ATAGGTGAATACTAATATAAATTCAAGAGGGAAAAG [CACACA_negctrl_site720],7.64 ± 0.7
7,TATATATATATAATGTGTACATACTAAATAGAGGAC [XGTACX_site4153],9.34 ± 0.54
8,TAAATATAAAAATGCACACACACAAAAAAAAAAAAA [CACACA_site895],8.88 ± 0.085
9,GAAATGTATAAATCCATACACACATAAATTTTAATA [CACACA_site2364],7.58 ± 0.4
10,TTTTTCATGTTTATTAGTACATATATTAAGAATGGA [XGTACX_site3493],7.85 ± 0.42
11,TTTTGTAAATATATATGTACATATATATATATATAT [XGTACX_site5803],9.15 ± 0.5
12,ACCTATTTATAATAGTGTACGTACAAATTTGTTTAC [XGTACX_site8176],8.17 ± 0.41
13,AAAATAAAAAATTAATGTACTTAGAATTGTCACTAA [XGTACX_site1346],7.51 ± 0.36
14,TAAAATAATAAACAGAAGAAATCATTCATATAAAAA [XGTACX_negctrl_site502],7.53 ± 0.56
15,AATTTGTTGAAACACACACACACATACATATATATA [CACACA_site2287],8.37 ± 0.69
16,TGATATTATATATATACACACATGTATGTATATATA [CACACA_site1364],7.41 ± 0.35
17,ATAAATATATGATAAAGTACATATTTATATAATAAA [XGTACX_site7263],7.45 ± 0.38
18,ATGTATCTATATATATGTACACATATTTTAATTAAA [XGTACX_site3673],7.95 ± 0.37
19,ATATTTATTTATAATTGTACTAATAATATATTTTAA [XGTACX_site587],7.76 ± 0.29
20,TGTGCATAATTTTGTGCACACCACGCTAATAATTTT [CACACA_site2915],11.4 ± 0.48
21,GGAATAAATAATATTATACACACGTATATTATTATA [CACACA_site2435],7.43 ± 0.36
22,AAGCTTTCATAAAGATGTACTTTTTAAAAATAATCT [XGTACX_site5725],7.76 ± 0.23

row,Sequence,gcPBM binding intensity (ln)
1,AAATTTAGGAACATTATATATATATATATATATATA [CACACA_negctrl_site862],9.41 ± 0.45
2,TATTTCATCTTATTTTAGGAAAAACTAATATATAAG [CACACA_negctrl_site1823],7.36 ± 0.42
3,TATTCGTCTTTTTTCTCACACACCCTTTTTATTAAA [CACACA_site2508],8.15 ± 0.52
4,GAACATTTGAAATATGCACACATGTATAAACCTACA [CACACA_site2654],8.7 ± 0.4
5,TAAAAATAAAGAAAATGTACATAAATAATAATACAT [XGTACX_site2278],7.79 ± 0.57
6,CAAAAAAAGGAAAAGATACACACCGTAAATTAAAAT [CACACA_site3612],7.65 ± 0.75
7,AGCAGGATTAAAAAAAGTACAAGAATTAATATTTAA [XGTACX_site3413],7.75 ± 0.099
8,TATATCTATAATATTACACACATATATTTATATTTT [CACACA_site7595],7.67 ± 0.37
9,AATTATTATCCCCTCACACACAAAAATAAAAAGAAT [CACACA_site2885],8.39 ± 0.63
10,ATTTTTTATTGTTATAAAAAAAAAATTAAACAATTA [CACACA_negctrl_site1077],7.32 ± 0.38
11,AAATTAAAGGCATAAAAGAAAATATTTAATAAAAAA [CACACA_negctrl_site1689],7.71 ± 0.73
12,AAAGAAAATAACAAAATTTTGAAAACATCACATTCG [CACACA_negctrl_site89],7.63 ± 0.69
13,ATATATAATAAACAGGTGCATTGTTTTATTTTGTAT,10.7 ± 0.42
14,ACCAGTTCTTAATACAAATATGTACATATATATATA [GTGCAC_negctrl_site56],9.14 ± 0.33
15,TTTTTTTTAATTGTGATACGTATATTATTTAATGAT [CACACA_negctrl_site38],7.82 ± 0.37
16,TAATGTATCTAAAATTGTACAAATATAAATCTAAAT [XGTACX_site1197],7.87 ± 0.28
17,CGCGCCCAGAAACACACACACACACCGATATATATA [CACACA_site5250],8.45 ± 0.6
18,ACAAAGATAAAACATAAAATATATCAAACATAAAAT [XGTACX_negctrl_site198],7.51 ± 0.64
19,AATAAATATAAATACACACCCATATAAATATAAATA [CACACA_site7264],7.78 ± 0.67
20,AAAAAAAATACATGTTGTACGGTACAAATATAAAGT [XGTACX_site2863],8.45 ± 0.44
21,ATATATCTTCTTTGCACACTTAAAGGGAAGTGATAA [CACACA_site342],9.46 ± 0.13
